Consider 47 molecules from patent publication US20250214977A1, “STAT6 INHIBITORS AND USES THEREOF” (Kymera Therapeutics, Inc., priority 2024, published 2025).

Structures are written as SMILES. Some results are limits rather than exact numbers.

In the assay the target is T1, biotinylated truncated STAT6 (123-632)-avi (Homo sapiens, UniProt P42226).
T1 sequence (P42226 123-632 limits assumed): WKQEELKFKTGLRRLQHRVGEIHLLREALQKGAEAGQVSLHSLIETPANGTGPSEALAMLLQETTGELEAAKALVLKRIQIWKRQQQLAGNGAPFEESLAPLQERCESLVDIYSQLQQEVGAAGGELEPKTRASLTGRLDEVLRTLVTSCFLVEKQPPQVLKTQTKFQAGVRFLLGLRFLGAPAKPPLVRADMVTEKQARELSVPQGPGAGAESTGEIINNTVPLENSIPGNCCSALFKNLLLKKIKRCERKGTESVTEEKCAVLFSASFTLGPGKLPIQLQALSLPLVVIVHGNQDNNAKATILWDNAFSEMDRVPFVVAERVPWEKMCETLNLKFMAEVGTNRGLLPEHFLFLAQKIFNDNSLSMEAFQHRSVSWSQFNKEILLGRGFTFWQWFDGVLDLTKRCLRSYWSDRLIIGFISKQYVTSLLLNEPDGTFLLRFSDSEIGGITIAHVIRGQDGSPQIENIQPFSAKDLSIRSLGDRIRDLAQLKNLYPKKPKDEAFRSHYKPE
The assay is described as follows: Homogenous Time-Resolved Fluorescence (HTRF) binding assay. The note with it: 0.15 nM biotinylated truncated STAT6 (123-632)-avi, 20 nM fluorescein-labeled probe, 30 minutes at room temperature.

`COc1cccnc1N1CCN(C(=O)c2cc3c(-c4cccc(F)c4F)cc(C4=CCCN(C(=O)CCn5ccnn5)C4)c(F)c3[nH]2)CC1` [Example I-371] displayed an IC50 of less than 100 nM.

`C#Cc1cc(C2=CCCN(C(=O)CCn3ccnn3)C2)cc2cc(C(=O)N(C)C)oc12` [Example I-373, 5-(1-(3-(1H-1,2,3-triazol-1-yl)propanoyl)-1,2,5,6-tetrahydropyridin-3-yl)-7-ethynyl-N,N-dimethylbenzofuran-2-carboxamide] gave an IC50 of less than 100 nM.

Turning to `CN(C)C(=O)c1cc2c(F)c(C3=CCCN(C(=O)C4Cc5ccccc5CN4C=O)C3)ccc2o1` (centres unmarked) [Example I-374, 4-fluoro-5-(1-(2-formyl-1,2,3,4-tetrahydroisoquinoline-3-carbonyl)-1,2,5,6-tetrahydropyridin-3-yl)-N,N-dimethylbenzofuran-2-carboxamide], the IC50 is less than 100 nM.

Turning to `COc1ccc(F)cc1-c1cc(C2=CCCN(C(=O)CCn3ccnn3)C2)c(F)c2[nH]c(C(=O)N3CCN(c4ncccc4OC)CC3)cc12` [Example I-395], the IC50 was less than 100 nM.

`COc1cccnc1N1CCN(C(=O)c2cc3c(-c4ccc5ccccc5c4OC)cc(C4=CCCN(C(=O)CCn5ccnn5)C4)c(F)c3[nH]2)CC1` [Example I-396]: the half-inhibitory concentration (IC50) was less than 100 nM.

`COc1cccnc1N1CCN(C(=O)c2cc3c(-c4cccc5ccccc45)cc(C4=CCCN(C(=O)CCn5ccnn5)C4)c(F)c3[nH]2)CC1` [Example I-397]: the IC50 is less than 100 nM.

`COc1cccnc1N1CCN(C(=O)c2cc3c(-c4cccc(F)c4OC)cc(C4=CCCN(C(=O)CCn5ccnn5)C4)c(F)c3[nH]2)CC1` [Example I-399] displayed an IC50 of less than 100 nM.

On to `COc1ccncc1-c1cc(C2=CCCN(C(=O)CCn3ccnn3)C2)c(F)c2[nH]c(C(=O)N3CCN(c4ccccc4)CC3)cc12` [Example I-400], for which the IC50 was less than 100 nM.

With `COc1ccccc1-c1cc(C2=CCCN(C(=O)CCn3ccnn3)C2)c(F)c2[nH]c(C(=O)N3CCN(c4cc5cc[nH]c5nc4C#N)CC3)cc12` [Example I-401], the IC50 was less than 100 nM.

`COc1cccnc1N1CCN(C(=O)c2cc3c(-c4cnc5ccccc5c4OC)cc(C4=CCCN(C(=O)CCn5ccnn5)C4)c(F)c3[nH]2)CC1` [Example I-402] yielded an IC50 of less than 100 nM.

Take `COc1ccccc1N1CCN(C(=O)c2cc3c(-c4cnccc4OC(C)C)cc(C4=CCCN(C(=O)CCn5ccnn5)C4)c(F)c3[nH]2)CC1` [Example I-403]: the IC50 was less than 100 nM.

With `COc1ccccc1N1CCN(C(=O)c2cc3c(-c4cnccc4OCF)cc(C4=CCCN(C(=O)CCn5ccnn5)C4)c(F)c3[nH]2)CC1` [Example I-405], the IC50 is less than 100 nM.

Turning to `CCOc1ccncc1-c1cc(C2=CCCN(C(=O)CCn3ccnn3)C2)c(F)c2[nH]c(C(=O)N3CCN(c4ccccc4OC)CC3)cc12` [Example I-406], the IC50 was less than 100 nM.

In turn, `COc1cnccc1-c1cc(C2=CCCN(C(C)=O)C2)c(F)c2[nH]c(C(=O)N3CCN(c4ncccc4OC)CC3)cc12` [Example I-408] displayed an IC50 of less than 100 nM.

For `COc1ccncc1-c1cc(C2=CCCN(C(C)=O)C2)c(F)c2[nH]c(C(=O)N3CCN(c4ccccc4OC)CC3)cc12` [Example I-409], the IC50 lay in the range of 100 to 1000 nM.

The molecule `COc1cccnc1N1CCN(C(=O)c2cc3c(-c4cccnc4OC)cc(C4=CCCN(C(=O)CCn5ccnn5)C4)c(F)c3[nH]2)CC1` [Example I-410] had an IC50 of less than 100 nM.

Molecule `COc1cccnc1N1CCN(C(=O)c2cc3c(-c4cccc(Cl)c4OC)cc(C4=CCCN(C(=O)CCn5ccnn5)C4)c(F)c3[nH]2)CC1` [Example I-411] registered an IC50 of less than 100 nM.

Take `CCOc1ccccc1-c1cc(C2=CCCN(C(=O)CCn3ccnn3)C2)c(F)c2[nH]c(C(=O)N3CCN(c4ncccc4OC)CC3)cc12` [Example I-412]: the IC50 is less than 100 nM.

Take `COc1ccccc1-c1cc(C2=CCCN(C(=O)CCn3ccnn3)C2)c(F)c2[nH]c(C(=O)N3CCN(c4ncc(C5CC5)cc4OC4CC4)CC3)cc12` [Example I-413]: the IC50 lay in the range of 100 to 1000 nM.

In turn, `COc1ccccc1-c1cc(C2=CCCN(C(=O)CCn3ccnn3)C2)c(F)c2[nH]c(C(=O)N3CCN(c4c(OC)cccc4Oc4ccccc4)CC3)cc12` [Example I-414] displayed an IC50 of 100 to 1000 nM.

The molecule `COc1ccccc1-c1cc(C2=CCCN(C(=O)CCn3ccnn3)C2)c(F)c2[nH]c(C(=O)N3CCN(c4nccc(C)c4OC)CC3)cc12` [Example I-415] had an IC50 of less than 100 nM.

In turn, `COc1ccccc1-c1cc(C2=CCCN(C(=O)CCn3ccnn3)C2)c(F)c2[nH]c(C(=O)N3CCN(c4ncc(N(C)C)cc4OC)CC3)cc12` [Example I-416] came in with an IC50 of less than 100 nM.

Regarding `COc1ccccc1-c1cc(C2=CCCN(C(=O)CCn3ccnn3)C2)c(F)c2[nH]c(C(=O)N3Cc4cn(-c5ncccc5OC)cc4C3)cc12` [Example I-417], the IC50 was less than 100 nM.

Take `COc1ccccc1-c1cc(C2=CCCN(C(=O)CCn3ccnn3)C2)c(F)c2[nH]c(C(=O)N3CCN(c4ccccc4F)CC3)cc12` [Example I-418]: the IC50 is less than 100 nM.

Turning to `COc1ccccc1-c1cc(C2=CCCN(C(=O)CCn3ccnn3)C2)c(F)c2[nH]c(C(=O)N3CCN(c4ccccc4)CC3)cc12` [Example I-419], the IC50 is less than 100 nM.

`COc1ccccc1-c1cc(C2=CCCN(C(=O)CCn3ccnn3)C2)c(F)c2[nH]c(C(=O)N3CCN(c4ccccc4OC(F)(F)F)CC3)cc12` [Example I-420] had an IC50 of 100 to 1000 nM.

The molecule `COc1ccccc1-c1cc(C2=CCCN(C(=O)CCn3ccnn3)C2)c(F)c2[nH]c(C(=O)N3CCN(c4ccccc4C)CC3)cc12` [Example I-421] gave an IC50 of less than 100 nM.

`COc1ccccc1-c1cc(C2=CCCN(C(=O)CCn3ccnn3)C2)c(F)c2[nH]c(C(=O)N3CCC(c4ccccc4OC)CC3)cc12` [Example I-422] displayed an IC50 of less than 100 nM.

`COc1ccccc1-c1cc(C2=CCCN(C(=O)CCn3ccnn3)C2)c(F)c2[nH]c(C(=O)N3CCN(c4ccccc4Cl)CC3)cc12` [Example I-423] had an IC50 of less than 100 nM.

`COc1ccccc1-c1cc(C2=CCCN(C(=O)CCn3ccnn3)C2)c(F)c2[nH]c(C(=O)N3CCN(c4c(F)cccc4OC4CC4)CC3)cc12` [Example I-424] came in with an IC50 of less than 100 nM.

In turn, `COc1ccccc1N1CCN(C(=O)c2cc3c(-c4cnccc4OC(F)F)cc(C4=CCCN(C(=O)CCn5ccnn5)C4)c(F)c3[nH]2)CC1` [Example I-426] showed an IC50 of less than 100 nM.

`COc1ccccc1-c1cc(C2=CCCN(C(=O)CCn3ccnn3)C2)c(F)c2[nH]c(C(=O)N3CCN(c4cccc(OC(F)F)c4)CC3)cc12` [Example I-427]: the IC50 was less than 100 nM.

`COc1ccncc1-c1cc(C2=CCCN(C(=O)CCn3ccnn3)C2)c(F)c2[nH]c(C(=O)N3CCN(c4ncc(F)cc4OC)CC3)cc12` [Example I-428]: the IC50 is less than 100 nM.

`COc1ccncc1-c1cc(C2=CCCN(C(=O)CCn3ccnn3)C2)c(F)c2[nH]c(C(=O)N3CCN(c4ncncc4OC)CC3)cc12` [Example I-429] yielded an IC50 of less than 100 nM.

In turn, `COc1ccccc1-c1cc(C2=CCCN(C(=O)CCn3ccnn3)C2)c(F)c2[nH]c(C(=O)N3CCN(c4cccc(OC(F)(F)F)n4)CC3)cc12` [Example I-430] showed an IC50 of 100 to 1000 nM.

`COc1ccccc1-c1cc(C2=CCCN(C(=O)CCn3ccnn3)C2)c(F)c2[nH]c(C(=O)N3CCN(c4ccc(F)cc4OC)CC3)cc12` [Example I-431] displayed an IC50 of less than 100 nM.

`COc1ccccc1-c1cc(C2=CCCN(C(=O)CCn3ccnn3)C2)c(F)c2[nH]c(C(=O)N3CCN(c4c(F)cc(F)cc4OC)CC3)cc12` [Example I-432] registered an IC50 of less than 100 nM.

For the molecule `COc1ccncc1-c1cc(C2=CCCN(C(=O)CCn3ccnn3)C2)c(F)c2[nH]c(C(=O)N3CCN(c4nc(C)ccc4OC)CC3)cc12` [Example I-433], the IC50 is greater than 100000 nM.

`COc1ccncc1-c1cc(C2=CCCN(C(=O)CCn3ccnn3)C2)c(F)c2[nH]c(C(=O)N3CC=C(c4ccc(F)c(OC)n4)CC3)cc12` [Example I-434] returned an IC50 of less than 100 nM.

Regarding `COc1cnccc1-c1cc(C2=CCCN(C(=O)CCn3ccnn3)C2)c(F)c2[nH]c(C(=O)N3CCN(c4ncc(C(F)(F)F)cc4OC)CC3)cc12` [Example I-435], the IC50 was less than 100 nM.

Turning to `COc1cnc(N2CCN(C(=O)c3cc4c(-c5ccncc5OC)cc(C5=CCCN(C(=O)CCn6ccnn6)C5)c(F)c4[nH]3)CC2)c(OC)c1` [Example I-436], the IC50 was less than 100 nM.

Consider `COc1cnc(N2CCN(C(=O)c3cc4c(-c5cnccc5OC)cc(C5=CCCN(C(=O)CCn6ccnn6)C5)c(F)c4[nH]3)CC2)c(OC)c1` [Example I-437], for which the IC50 is less than 100 nM.

Regarding `COc1ccncc1-c1cc(C2=CCCN(C(=O)CCn3ccnn3)C2)c(F)c2[nH]c(C(=O)N3CCN(c4ncc(C5CC5)cc4OC)CC3)cc12` [Example I-438], the IC50 was less than 100 nM.

Take `CNc1cccnc1N1CCN(C(=O)c2cc3c(-c4ccccc4OC)cc(C4=CCCN(C(=O)CCn5ccnn5)C4)c(F)c3[nH]2)CC1` [Example I-439]: the IC50 was less than 100 nM.

On to `COc1cccc(N2CCN(C(=O)c3cc4c(-c5cnccc5OC)cc(C5=CCCN(C(=O)CCn6ccnn6)C5)c(F)c4[nH]3)CC2)n1` [Example I-440], for which the IC50 is less than 100 nM.

Turning to `COc1ccncc1-c1cc(C2=CCCN(C(=O)CCn3ccnn3)C2)c(F)c2[nH]c(C(=O)N3CCN(c4nccnc4OC)CC3)cc12` [Example I-441], the IC50 is less than 100 nM.

On to `COc1ccncc1-c1cc(C2=CCCN(C(=O)CCn3ccnn3)C2)c(F)c2[nH]c(C(=O)N3CC=C(c4ncc(F)cc4OC)CC3)cc12` [Example I-442], for which the IC50 was less than 100 nM.
